Measurements from PMC4336329 (PLoS ONE, 2015).
About 14,000 (4.5%) of roughly 310,000 compounds showed an effect of 50% or more. The effect is printed as a negative number. The list shows a part of the results.

What follows are compounds tested against human ether-à-go-go-related gene (hERG) potassium channel (human, UniProt Q12809) (assay: primary screen, population patch clamp on CHO cells stably expressing hERG).
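Note: peak tail current of the secondary pulse compared with the same well before compound.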

Chain of human ether-à-go-go-related gene (hERG) potassium channel (Q12809 whole entry, looked up): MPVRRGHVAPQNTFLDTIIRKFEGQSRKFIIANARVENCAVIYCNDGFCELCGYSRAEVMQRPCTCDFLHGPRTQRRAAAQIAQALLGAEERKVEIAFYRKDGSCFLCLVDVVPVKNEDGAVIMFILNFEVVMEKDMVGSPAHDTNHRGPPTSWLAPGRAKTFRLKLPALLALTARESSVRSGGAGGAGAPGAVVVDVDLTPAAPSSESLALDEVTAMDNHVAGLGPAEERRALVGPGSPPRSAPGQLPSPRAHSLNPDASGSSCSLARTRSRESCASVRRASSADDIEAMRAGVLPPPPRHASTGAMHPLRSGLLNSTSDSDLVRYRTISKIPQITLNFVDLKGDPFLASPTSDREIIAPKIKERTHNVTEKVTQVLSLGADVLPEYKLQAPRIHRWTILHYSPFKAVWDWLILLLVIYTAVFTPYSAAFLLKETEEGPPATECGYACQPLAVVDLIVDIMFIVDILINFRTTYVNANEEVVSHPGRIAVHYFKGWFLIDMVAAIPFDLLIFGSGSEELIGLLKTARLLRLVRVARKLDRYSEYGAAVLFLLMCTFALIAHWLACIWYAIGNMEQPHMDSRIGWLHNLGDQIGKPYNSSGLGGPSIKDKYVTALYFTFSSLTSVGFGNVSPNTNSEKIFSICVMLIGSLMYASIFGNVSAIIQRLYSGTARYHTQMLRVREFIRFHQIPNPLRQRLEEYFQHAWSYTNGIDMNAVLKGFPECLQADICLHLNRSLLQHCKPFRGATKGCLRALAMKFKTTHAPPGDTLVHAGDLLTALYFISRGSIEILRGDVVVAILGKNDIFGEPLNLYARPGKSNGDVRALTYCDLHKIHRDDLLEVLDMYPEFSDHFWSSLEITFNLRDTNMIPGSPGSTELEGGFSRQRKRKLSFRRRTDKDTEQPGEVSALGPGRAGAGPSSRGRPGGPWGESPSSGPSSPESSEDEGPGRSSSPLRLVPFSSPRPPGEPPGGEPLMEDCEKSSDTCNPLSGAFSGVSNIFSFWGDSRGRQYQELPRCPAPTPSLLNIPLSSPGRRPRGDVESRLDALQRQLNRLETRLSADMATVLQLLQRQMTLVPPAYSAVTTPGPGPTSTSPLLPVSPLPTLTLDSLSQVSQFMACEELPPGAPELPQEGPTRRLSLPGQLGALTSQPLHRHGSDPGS

SMILES	hERG current change (%, negative = inhibition) at 10uM [%]
Cn1c(=O)[nH]c(=O)c2c1nc(N1CCCCC1)n2CCSc1nc2ccccc2o1	11.1
Cc1cc(=O)n2ccsc2n1	3.28
O=C1COc2ccc(S(=O)(=O)N3CCCCCC3)cc2N1	9.98
COCc1nc2ccccc2n1Cc1ccccc1C	1.2
CC(=O)c1sc(NC(=O)c2cc(=O)c3ccccc3o2)nc1C	10.1
CN1CC(c2ccc(C#N)cc2)C2(COc3ccccc3C2=O)C12C(=O)Nc1ccccc12 (centres unmarked)	-37.1
Cc1cccc(C)c1NS(=O)(=O)c1ccc(-c2cnc(C3CC3)o2)cc1	10.7
COc1cc(/C=C2\C(=N)N3N=C(S(C)(=O)=O)SC3=NC2=O)cc(OC)c1OCCOc1ccccc1C	23.4
CCN(CC)S(=O)(=O)c1ccc(C)c(NC(=S)N2CCN(C/C=C/c3ccccc3)CC2)c1	-2.74
NCC(=O)Nc1ccc(Br)cc1	10.2
Cc1nn(-c2ccccc2)c(N2CCCCC2)c1/C=N/NC(=O)c1ccncc1	7.3
CC(=O)c1cc2c(cc1NC(=O)C1CC=CCC1C(=O)O)OCO2 (centres unmarked)	8.02
CC1=CC(C)C2C(=O)N(c3ccccc3)C(=O)C2C1 (centres unmarked)	5.25
COc1ccc2oc(=O)c(C(=O)O)cc2c1	4.91
O=C(CCCCCn1c(=S)[nH]c2cc3c(cc2c1=O)OCO3)NCCc1ccccc1	15.1
NC(=O)c1sc2nccc(Nc3ccccc3)c2c1N	-19
CCCC1CC(C)(C(=O)Cn2[nH]c(=O)ccc2=O)OC1=O (centres unmarked)	-3.28
O=C(CCCOc1ccccc1)NCCc1ccccc1	-3.36
COc1ccc(C(=O)/C(C#N)=N/Nc2ccccc2[N+](=O)[O-])cc1	10.5
COc1ccc(Br)c(/C=N/NC(=O)COc2ccc(-c3ccccc3)cc2)c1	7.38
C=CCn1c(SCC(=O)/C(C#N)=C(\C)N)nnc1C1CCCCC1	-3.62
O=c1c2ccsc2ncn1Cc1ccc(Cl)cc1	-3.3
O=C(CSc1nnc(COc2ccccc2)o1)N1CCN(c2ccccc2)CC1	3.61
N#Cc1ccccc1CN1C(=O)c2ccccc2S1(=O)=O	16
Cc1ccc(CS(=O)(=O)CCC(=O)N2CCOCC2)cc1	12.6
CCC(=O)NC(c1ccco1)c1cc(Cl)c2ccccc2c1O (centres unmarked)	0.92
